# Assay results published in ChEMBL document CHEMBL4888484, “Replenishing the malaria drug discovery pipeline: Screening and hit evaluation of the MMV Hit Generation Library 1 (HGL1) against asexual blood stage Plasmodium falciparum ,using a nano luciferase reporter read-out” (2022).
# Out of some 150,000 compounds screened, about 540 (0.36%) showed an effect of 50% or more. The list shows a part of the results.
# System: Plasmodium falciparum
# Assay: Primary screen in NF54 nanoGlo assay, in single point, at 2uM, 72h; a lower Z score goes with more inhibition
# Format: functional, Erythrocyte
# Conditions: timepoint 72 hour
Compound,% Inhibition,Z score
O=C(NCc1ccc(N2CCCC2=O)cc1)NCc1cc[nH]n1,-7%,1.1
COc1ccc(CN2CCCN(c3ccccc3C)CC2)cc1CN1CCCC1,8%,-1.04
Cc1c(CN(C)C(=O)NC[C@H]2CC[C@@H](CO)O2)cnn1C,14%,-1.72
O=C(NCC[C@@H]1CCCC[C@@H]1O)NC1CC(F)(F)C1,-7%,0.91
CN1C(=O)CCC(NC(=O)NC[C@]23C[C@H]2COC32CCC2)C1=O (stereo not given in full),0%,0.03
C[C@@](O)(c1nc(-c2ccncc2Br)no1)C1CC1,9%,-1.09
CC(C)c1cc(-c2nc(-c3ccccn3)no2)[nH]n1,-11%,1.24
O=S(=O)(CC(O)CNC1COC2(CCC2)C1)c1cccs1 (stereo not given),-8%,1.16
CS(=O)(=O)N1CCO[C@@H](Cn2cc(-c3cccc(-n4cccn4)c3)nn2)C1,-10%,1.82
Nc1ncccc1CNC(=O)c1coc(COc2ccc(F)cc2Cl)n1,1%,-0.08
Cc1nn(CC(N)=O)c(C)c1-c1ccc(C2CCCC2)cc1,-6%,1.02
CC(C)n1ncnc1-c1ccc(C(=O)NCCCn2ccnn2)cc1,-2%,0.31
Cc1cc(OCC(=O)Nc2ccc(N(C)C)cc2)no1,-5%,0.49
COc1ccc(CN2CCC(CNC(=O)c3cncc(F)c3)CC2)c(C)c1C,-14%,1.26
CCCN(CCC)CCN1C(=O)[C@@H]2C(C(=O)Nc3cc(Cl)cc(Cl)c3)[C@@H]3C=C[C@]2(O3)C1C(=O)NC1CCCCC1 (stereo not given in full),47%,-4.6
N#Cc1cc(F)ccc1NCCN1CCCOCC1,7%,-0.69
Cc1nc(C(=O)Nc2cc(Cl)ccc2N2CCCC2=O)c(C)s1,29%,-3.34
CCNC(=O)NCCN1CCC(c2cccs2)CC1,-15%,2.24
COCCCN(CCOC)C(=O)Nc1ccnc(C)c1Cl,-6%,0.99
CC[C@H](C)C(=O)Nc1cc(C(=O)OC)cc(C(=O)OC)c1,19%,-2.34
COCCc1noc(-c2cnc(N(C)C)nc2C)n1,5%,-0.82
CCOc1ccccc1C(F)(F)C(=O)NC(C)(C)CO,4%,-0.79

Compound,% Inhibition,Z score
CC(C)N1CCc2nc(CN3CC[C@H](O)C34CCCC4)sc2C1,1%,-0.1
COc1ccc2c(C)c(C(=O)N[C@H]3CCOC[C@@H]3O)oc2c1OC,-13%,2.02
c1cc(-c2nnn(CC3CCOCC3)n2)cs1,-4%,0.61
Cc1cc(=O)n(-c2nc3c(c(=O)n(C)c(=O)n3C)n2CCc2ccccc2)[nH]1,-5%,0.91
Cc1nn(C)c2ncnc(N(C)Cc3cccc(-c4nnn[nH]4)c3)c12,-8%,0.98
CC[C@@H](CO)NC(=O)c1ccccc1C(F)(F)F,-1%,0.17
Cc1cccc(C(=O)Nc2ccc3c(c2)nc(Cn2cccn2)n3CC(C)C)c1,-8%,0.83
COc1cc(NC(=O)c2ccc(CN3C(=O)CNC3=O)cc2)c(OC)cc1Cl,-10%,1.05
COc1ccc(C(=O)N2CC[C@@H]3COCCN(C)[C@@H]3C2)c(OC)c1,5%,-0.9
O=C(NCC1CCCCC1O)c1cnn2ccncc12 (stereo not given),41%,-5.86
CCn1c(CNc2cccc(C(=O)OC)c2)nc2cc(S(=O)(=O)N3CCCCC3)ccc21,12%,-1.42
O=C(NCc1cncc(C2CC2)c1)c1cscn1,-5%,0.59
Cn1cccc(C(=O)N2CC(Oc3cccnc3)C2)c1=O,-7%,1.38
O=C(Cc1ccccc1O)NO[C@@H]1CCCCO1,-1%,0.15
CCC1CN(C(=O)NCc2ccnc(C)n2)CCC1c1ccccc1 (stereo not given),-3%,0.51
CC1=NS(=O)(=O)N(CC(=O)Nc2ccc(C(C)C)cc2)C=C1c1nc(-c2ccccc2)no1,-1%,0.16
Cc1ccc(C#N)c(N2CCN(C[C@H]3CN(C(C)C)CCO3)CC2)n1,-6%,0.94
Cc1noc(C)c1CCC(=O)Nc1c(C)noc1C,-13%,1.24
CNC(=O)c1ccc(OCc2cnn(C)c2)c(OC)c1,-13%,2.43
C#Cc1cccc(NC(=O)CN(C)C(=O)c2cnc3[nH]nnc3c2)c1,5%,-0.74
CC(C)(C)C(=O)Nc1cc(S(C)(=O)=O)ccc1Cl,-2%,0.15
CCC(NC(=O)c1ncoc1C)C(O)C(F)(F)F (stereo not given),-4%,0.68

Compound,% Inhibition,Z score
CC(C)c1noc([C@H](C)Nc2ccc3c(c2)CCO3)n1,-13%,2.6
O=C(c1ccccc1)C(C(=O)c1ccccc1)[C@@H](c1ccccc1)c1nc2ccccc2[nH]c1=O,2%,-0.26
CC[C@@](C)(CC(=O)OC)NCc1cnc(C)cn1,-13%,1.19
COC(=O)NC1CCN(c2ccccc2C(=O)N2CCC(C)CC2)CC1,-1%,0.08
C=C(C)Cn1c(CN(C)C)nnc1N1CCC(C)(COC)CC1,-2%,0.31
CCOc1ccc(CN2CCCn3cccc3[C@H]2c2cc(F)ccc2F)cc1,-6%,1.2
COc1ccc(C(=O)N2CC[C@@H]3COCCN(C)[C@@H]3C2)cc1F,-1%,0.1
O=C(Nc1ccccc1CCc1ccccn1)N1C[C@H]2CC[C@H]1C2,-16%,1.59
CC1=CC[C@H]2CN(c3nc(C(N)=O)cs3)C[C@H]2C1,2%,-0.42
Cc1cc(Cl)ccc1NC(=O)CN(C)S(=O)(=O)c1c[nH]c(C(=O)N2CCCCCC2)c1,8%,-0.81
O=C(O)C(CNC(=O)C1CC1C1CC1)Cc1ccccc1 (stereo not given),-5%,0.72
Cc1cnccc1OC1CCN(C(=O)[C@H](CO)NC(=O)C(C)C)CC1,5%,-1.08
O=c1ccc(S(=O)(=O)N2CCCCC2)cn1CCOc1ccccc1,-6%,1.27
COc1cc(CNn2cnnc2)ccc1OCc1c(F)cccc1Cl,-28%,3.24
Cc1nnc2ccc(S(=O)(=O)Nc3cc(F)cc(F)c3)cn12,30%,0
Cc1ccc2c(c1)C(=O)N(CCCC(=O)NCc1ccc(N3CCCN(C)CC3)nc1)C2=O,2%,-0.29
Cc1cc(C)n(-c2cncc(NCCc3nc(C)no3)n2)n1,-11%,1.48
O=C(c1ccc(CC2CCN(Cc3cccc(F)c3)CC2)cc1)N1CCOCC1,-4%,0.78
CC(C)NC(=O)CCN(Cc1ccco1)C(=O)c1csc(Nc2cccc(Cl)c2Cl)n1,6%,-0.98
CCCCn1c(C(=O)NCC(C)C)cc2c(OCC)cccc21,-11%,1.35
O=C(Cc1n[nH]c(=O)c2cc(-c3ccc(F)cc3)nn12)NCc1ccc(F)cc1,1%,-0.19
O=C1NCC2(CCN(C(=O)C[C@@H](c3ccccc3)c3ccccc3F)CC2)O1,-7%,0.87

Compound,% Inhibition,Z score
Cc1ccc2[nH]c(CN3CC[C@](O)(C4CC4)[C@@H](C)C3)c(C)c2c1,-11%,1.52
O=C(Nc1cc(-c2cccs2)no1)c1ccccc1F,-15%,2.53
O=C(NC1CCOCC1)c1cccc(S(=O)(=O)N2CCCCCCC2)c1,-10%,0.95
CS(=O)(=O)c1ccc(Cn2cc3c(c(C#N)c2=O)CCC3)cc1,-14%,2.04
O=C(CC1C(=O)OCC2CCCCN21)Nc1cccc(Cl)c1 (stereo not given),-7%,1.29
CC1NCCN(C(=O)OC(C)(C)C)C1C (stereo not given),-14%,1.5
OC1C2CCCC1C(c1ccccc1)NC2c1ccccc1 (stereo not given),27%,-3.07
O=C1NCCOCCCN(C(=O)c2ccsc2)[C@H]2CCCC[C@@H]12,-10%,1.69
Cn1ccnc1CN1CCN(C(=O)NCc2nc3ccccc3c(=O)[nH]2)CC1,1%,-0.17
CCCn1c(=O)c2sccc2n(CC(=O)N[C@@H](C)CCc2ccccc2)c1=O,-3%,0.35
Cc1cccnc1CNC(=O)Nc1c(C)cnn1CC1CC1,-9%,1.53
CCn1nc(Cc2ccccc2OC)nc1CN1CCCCC1=O,0%,0.06
CCOc1ncccc1C(=O)NCc1noc(C(N)=O)n1,-1%,0.1
O=C(Nc1ccccc1F)c1oc2ccccc2c1NC(=O)C(c1ccccc1)c1ccccc1,-2%,0.4
O=C1C2C3C=CC(C3=C(c3ccccc3)c3ccccc3)C2C(=O)N1c1ccccn1 (stereo not given),24%,-3.01
Cc1nn(CC(=O)N2CC[C@@H](OC(C)C)C2)c2ncccc12,4%,-0.7
CN(C)c1nc(N)nc(C(=O)N[C@H](c2ccccc2)C2CC2)n1,5%,-0.69
O=S(=O)(NCC1(c2ccsc2)CCCC1)c1cccnc1,5%,-0.7
CCN(CC)C(=O)[C@@H](NC(=O)c1ccccc1)C1CCN(C(=O)c2cccc(Br)c2)CC1,-7%,0.72
